# Assay results published in the supplement of paper PMC3334620.
# The full ranking holds about 33,000 sequences; the median of “E-score (-0.5 to 0.5)” is about -0.012, and the highest 2% start at about 0.27. This is one part of the list.
# Target: T1, Vhr1 (UniProt P40522)
# T1 sequence: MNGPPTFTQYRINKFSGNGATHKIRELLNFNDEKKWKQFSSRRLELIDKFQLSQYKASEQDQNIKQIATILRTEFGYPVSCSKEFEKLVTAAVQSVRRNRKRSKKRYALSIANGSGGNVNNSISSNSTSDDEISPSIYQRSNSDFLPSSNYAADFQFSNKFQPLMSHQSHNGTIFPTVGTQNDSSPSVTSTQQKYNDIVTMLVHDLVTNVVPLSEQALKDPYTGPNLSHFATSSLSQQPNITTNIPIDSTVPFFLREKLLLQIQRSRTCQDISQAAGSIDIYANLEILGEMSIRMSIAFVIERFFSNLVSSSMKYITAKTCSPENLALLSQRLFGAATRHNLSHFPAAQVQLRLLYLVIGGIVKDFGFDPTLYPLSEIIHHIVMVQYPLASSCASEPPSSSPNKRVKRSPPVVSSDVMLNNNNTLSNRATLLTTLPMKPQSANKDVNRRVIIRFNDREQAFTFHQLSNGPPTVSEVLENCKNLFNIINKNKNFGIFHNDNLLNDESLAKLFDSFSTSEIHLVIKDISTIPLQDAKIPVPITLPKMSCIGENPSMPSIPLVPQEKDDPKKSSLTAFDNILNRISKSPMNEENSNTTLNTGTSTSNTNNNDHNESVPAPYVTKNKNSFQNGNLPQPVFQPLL
# Experiment: PBM E-score (8-mer binding enrichment) (E-score (-0.5 to 0.5)); higher = stronger / more preferred TF binding; most listed sequences are background and not binding sites
# Details: protein concentration: 200 nM; construct: GST-full length
# In short: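 For each ungapped eight-base word taken together with its reverse complement, the Universal PBM Analysis Suite assigned an E-score. Binding data came from GST-tagged yeast transcription factors, applied at about 100-200 nM, on universal all-10-mer Agilent arrays made double-stranded by primer extension. Fluorescent anti-GST marked bound protein, and scans were normalised with masliner.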
row,Sequence,PBM E-score
1,AGAGTCGG,0.329
2,TCTACGCA,-0.018
3,GAACTCGA,-0.0101
4,CACCAATG,0.147
5,AGAAAAGA,-0.315
6,CAGTTTAC,-0.0698
7,AGTTTAGC,-0.127
8,AATGCACG,-0.0807
9,GACCTCGC,-0.0089
10,GAAGACAC,0.0155
11,CCGATGGA,-0.036
12,CGTTTAAA,-0.219
13,AAGTCACG,0.336
14,ATAATCCC,0.0633
15,CAAAATCC,0.096
16,ATAACCAA,0.0388
17,AGCCACAA,0.0444
18,CAATCTGC,-0.0194
19,GATGAGTA,0.382
20,CAGCGTCC,0.0164
21,CAAACACC,-0.0718
22,ATTCCGGC,0.0156
23,AACGCTCA,-0.0577
24,CCACTTAG,-0.0134
25,CCTGCCCC,0.00204

row,Sequence,PBM E-score
1,CTATTATC,-0.158
2,CTCTAAGA,-0.0971
3,GACTCAAA,0.266
4,CCCTCGTC,0.0663
5,CGTCCTGA,-0.0229
6,CTCAAAAC,0.0113
7,CGGGATGA,0.145
8,CAGTTTAG,-0.264
9,CAAACCTC,-0.0936
10,GTGGCTGA,0.175
11,GTAGGGAA,-0.0993
12,GTCTTACA,0.0006
13,ACAGCTTC,-0.194
14,CAAAACCA,0.126
15,GAATCTTA,-0.00777
16,ATAAGTGC,-0.105
17,GATTCACA,0.326
18,AAAACCTG,-0.142
19,GTCTCAAA,-0.154
20,GCCGGTAA,0.195
21,CCGGCCTC,-0.105
22,CATCTCGA,-0.0977
23,AACTAACT,-0.0819
24,ATAGTTCC,0.164
25,GCAGAACC,-0.0512

row,Sequence,PBM E-score
1,CAAATTCG,-0.0604
2,TCAAAAGA,-0.0618
3,ACCTGCGA,0.0234
4,CTGCTCAC,0.0104
5,GAACTGTA,0.0842
6,CTGTCAAC,0.0314
7,GGCATCAA,-0.122
8,CAAATAGG,-0.0194
9,CCATCACG,0.109
10,ACACGACC,0.109
11,GTAGTGCA,0.0873
12,AGACTTGG,-0.119
13,AATCAGCA,0.23
14,ACAACATA,0.0715
15,GACGACCA,-0.0813
16,AATTTGTA,-0.0169
17,TAGCTCGA,0.083
18,CCTTCTGC,-0.0698
19,AATTCGCG,-0.02
20,AGGATAAA,-0.0475
21,ACCAACGC,0.043
22,AGGAAACA,0.0101
23,CTGATGGC,0.0804
24,ATTGTTAG,-0.094
25,GTATTCTA,0.0349

row,Sequence,PBM E-score
1,ACTGTTCT,0.199
2,CATTAACC,0.21
3,ATCAGTCG,0.23
4,CCTACGTC,-0.178
5,ATGAATTA,-0.0774
6,AAAACCAA,-0.0825
7,ATTCACTC,-0.0177
8,CATTCCCG,0.0423
9,ATACTTGG,0.0655
10,GGGGAGTA,0.17
11,AATGGGTG,0.162
12,ATCTATGG,0.00719
13,GTGTCAAA,-0.00029
14,AAAGGCCG,-0.124
15,ACGAGACA,0.127
16,ATTGGCTC,0.0185
17,CGAAGGTC,-0.103
18,ATCGGGGG,-0.149
19,ACGCCCTC,-0.111
20,GAATACAA,0.127
21,AGCGAAAT,-0.184
22,GCGAAAGA,-0.209
23,GACAAAAA,-0.183
24,CGTTGCGC,-0.103
25,CAGTGATA,0.00123

row,Sequence,PBM E-score
1,AATTTAAG,-0.187
2,AATTCCAG,-0.136
3,CATCCTCA,0.126
4,CCATTGGG,-0.18
5,GGCAGTAC,-0.143
6,ATTTCAAG,-0.289
7,AAGAGAGA,-0.233
8,GCCGGTAC,0.0314
9,GTATACAA,0.172
10,GCGCATCC,-0.0491
11,ACATGTCC,-0.13
12,AAAAGCTT,-0.351
13,CAGTACAA,0.133
14,GTACGGGA,-0.129
15,AATCTCAC,-0.0657
16,CGTTAGTC,0.132
17,ATCTCCCG,-0.0912
18,ACTAGGAA,0.0492
19,CCGCCGAC,0.075
20,GCAAATGC,-0.279
21,ATCGAATC,0.193
22,AATTAGGT,-0.148
23,CGGACGTA,-0.138
24,AGCGACCA,-0.0305
25,CTCTGAAA,-0.12

row,Sequence,PBM E-score
1,ATTAAGCC,-0.171
2,AAGATTCT,-0.137
3,GGATGTAC,0.0103
4,GTTCACGA,-0.0674
5,CTCTACAG,-0.0399
6,CAGTTCTA,-0.0933
7,ATGGCTAA,0.142
8,ATAGCTAA,-0.106
9,AAACGCGG,-0.125
10,CTACTTTA,0.0794
11,CTCGTGTC,0.036
12,TGAGTCAA,0.419
13,AGCCAGCA,-0.0844
14,AACGGTAC,0.134
15,AATGATCA,0.0798
16,GCATTCGC,-0.216
17,CATCTATA,0.0881
18,CCGCCCGG,0.0777
19,GAGCAGTA,0.117
20,GCCTCAGC,-0.198
21,AATTATGC,-0.0219
22,GACAGAAC,-0.136
23,CTGCAAGA,-0.0752
24,ATAACCAT,0.0551
25,ACCCCATG,0.0775

row,Sequence,PBM E-score
1,GCTCCATA,-0.00565
2,CGTGCTCC,0.0843
3,ATTATCGG,-0.191
4,GGGAGTCA,0.47
5,ACCCCGGG,0.00711
6,AGAGTCCA,0.144
7,ATTCGGTG,0.106
8,AAGCTACT,-0.0354
9,CTACCGGC,-0.0946
10,ACCTTGCG,-0.0156
11,CAAAGAAA,-0.165
12,TTCCGGAA,-0.184
13,GACTGACA,0.15
14,AAATCCGT,-0.0877
15,GACTCTCC,0.259
16,AACAGCTC,0.0178
17,GCGCCCCA,-0.131
18,TAAGTAAA,-0.181
19,AGGAAATG,-0.0831
20,AACCGCCT,0.1
21,ACGATTAT,0.00603
22,AGCAGGTG,0.0643
